# Test results from the supplement of paper PMC8728848.
# The other results are listed elsewhere or left out.
# Tests used:
# Assay in all cases: glycan array binding signal (z-score within array); higher = stronger binding
# Conditions in all cases: glycan notation: IUPAC condensed, linker removed
# [1] = biological target: GlcNAc(a1-4)Gal(b1-4)GlcNAc
# Summary of the method: (§1)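 The binding signal is a Z-score computed within each array. Data were drawn from 3228 arrays in the Consortium for Functional Glycomics database, restricted to those with a known protein sequence. Scores were averaged over arrays of the same protein sequence at different concentrations or buffers, and over linkers, and negative values can be taken as non-binding.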
# [2] = biological target: GlcNAc(a1-4)Gal(b1-4)GlcNAc(b1-3)Gal(b1-4)Glc
# Summary of the method: as §1
# [3] = biological target: GlcNAc(a1-4)Gal(b1-4)GlcNAc(b1-3)Gal(b1-4)GlcNAc
# Summary of the method: as §1
# [4] = biological target: GlcNAc(a1-4)Gal(b1-4)GlcNAc(b1-3)Gal(b1-4)GlcNAc(b1-3)Gal(b1-4)GlcNAc
# Summary of the method: as §1
# [5] = biological target: GlcNAc(a1-4)Gal(b1-4)GlcNAc(b1-3)Gal(b1-4)[Fuc(a1-3)]GlcNAc(b1-3)Gal(b1-4)[Fuc(a1-3)]GlcNAc
# Summary of the method: as §1
# [6] = biological target: GlcNAc(a1-6)Gal(b1-4)GlcNAc
# Summary of the method: as §1
# [7] = biological target: GlcNAc(b1-2)Gal(b1-3)GalNAc
# Summary of the method: as §1
# [8] = biological target: GlcNAc(b1-2)Man(a1-3)[GlcNAc(b1-2)Man(a1-6)]Man(b1-4)GlcNAc(b1-4)GlcNAc
# Summary of the method: as §1
# [9] = biological target: GlcNAc(b1-2)Man(a1-3)[GlcNAc(b1-2)Man(a1-6)]Man(b1-4)GlcNAc(b1-4)[Fuc(a1-6)]GlcNAc
# Summary of the method: as §1
# [10] = biological target: GlcNAc(b1-2)Man(a1-3)[GlcNAc(b1-4)][GlcNAc(b1-2)Man(a1-6)]Man(b1-4)GlcNAc(b1-4)GlcNAc
# Summary of the method: as §1
# [11] = biological target: GlcNAc(b1-2)Man(a1-3)[GlcNAc(b1-4)][GlcNAc(b1-2)Man(a1-6)]Man(b1-4)GlcNAc(b1-4)[Fuc(a1-6)]GlcNAc
# Summary of the method: as §1
# [12] = biological target: GlcNAc(b1-2)[GlcNAc(b1-4)]Man(a1-3)[GlcNAc(b1-2)Man(a1-6)]Man(b1-4)GlcNAc(b1-4)GlcNAc
# Summary of the method: as §1
# [13] = biological target: GlcNAc(b1-2)[GlcNAc(b1-4)]Man(a1-3)[GlcNAc(b1-4)][GlcNAc(b1-2)Man(a1-6)]Man(b1-4)GlcNAc(b1-4)GlcNAc
# Summary of the method: as §1
# [14] = biological target: GlcNAc(b1-2)[GlcNAc(b1-4)]Man(a1-3)[GlcNAc(b1-4)][GlcNAc(b1-2)[GlcNAc(b1-6)]Man(a1-6)]Man(b1-4)GlcNAc(b1-4)GlcNAc
# Summary of the method: as §1
# [15] = biological target: GlcNAc(b1-2)[GlcNAc(b1-4)]Man(a1-3)[GlcNAc(b1-4)][GlcNAc(b1-2)[GlcNAc(b1-6)]Man(a1-6)]Man(b1-4)GlcNAc(b1-4)[Fuc(a1-6)]GlcNAc
# Summary of the method: as §1
# [16] = biological target: GlcNAc(b1-2)[GlcNAc(b1-6)]Man(a1-6)[GlcNAc(b1-2)Man(a1-3)]Man(b1-4)GlcNAc(b1-4)GlcNAc
# Summary of the method: as §1
# [17] = biological target: GlcNAc(b1-2)[GlcNAc(b1-6)]Man(a1-6)[GlcNAc(b1-2)Man(a1-3)]Man(b1-4)GlcNAc(b1-4)[Fuc(a1-6)]GlcNAc
# Summary of the method: as §1
# [18] = biological target: GlcNAc(b1-2)[GlcNAc(b1-6)]Man(a1-6)[GlcNAc(b1-4)][GlcNAc(b1-2)Man(a1-3)]Man(b1-4)GlcNAc(b1-4)GlcNAc
# Summary of the method: as §1
# GlcNAc(b1-3)Fuc = biological target: GlcNAc(b1-3)Fuc
# Summary of the method: as §1
# GlcNAc(b1-3)Gal = biological target: GlcNAc(b1-3)Gal
# Summary of the method: as §1
# [19] = biological target: GlcNAc(b1-3)Gal(b1-3)GalNAc
# Summary of the method: as §1
# GlcNAc(b1-3)Gal(b1-4)Glc = biological target: GlcNAc(b1-3)Gal(b1-4)Glc
# Summary of the method: as §1
# [20] = biological target: GlcNAc(b1-3)Gal(b1-4)GlcNAc
# Summary of the method: as §1
# [21] = biological target: GlcNAc(b1-3)Gal(b1-4)GlcNAc(b1-2)Man(a1-3)[GlcNAc(b1-3)Gal(b1-4)GlcNAc(b1-2)Man(a1-6)]Man(b1-4)GlcNAc(b1-4)GlcNAc
# Summary of the method: as §1
# [22] = biological target: GlcNAc(b1-3)Gal(b1-4)GlcNAc(b1-2)Man(a1-3)[GlcNAc(b1-3)Gal(b1-4)GlcNAc(b1-2)Man(a1-6)]Man(b1-4)GlcNAc(b1-4)[Fuc(a1-6)]GlcNAc
# Summary of the method: as §1
# [23] = biological target: GlcNAc(b1-3)Gal(b1-4)GlcNAc(b1-2)[GlcNAc(b1-3)Gal(b1-4)GlcNAc(b1-6)]Man(a1-6)[GlcNAc(b1-3)Gal(b1-4)GlcNAc(b1-2)Man(a1-3)]Man(b1-4)GlcNAc(b1-4)GlcNAc
# Summary of the method: as §1
# [24] = biological target: GlcNAc(b1-3)Gal(b1-4)GlcNAc(b1-3)Gal(b1-4)GlcNAc
# Summary of the method: as §1
# [25] = biological target: GlcNAc(b1-3)Gal(b1-4)GlcNAc(b1-3)Gal(b1-4)GlcNAc(b1-2)Man(a1-3)[GlcNAc(b1-3)Gal(b1-4)GlcNAc(b1-3)Gal(b1-4)GlcNAc(b1-2)Man(a1-6)]Man(b1-4)GlcNAc(b1-4)GlcNAc
# Summary of the method: as §1
# [26] = biological target: GlcNAc(b1-3)Gal(b1-4)GlcNAc(b1-3)Gal(b1-4)GlcNAc(b1-2)Man(a1-3)[GlcNAc(b1-3)Gal(b1-4)GlcNAc(b1-3)Gal(b1-4)GlcNAc(b1-2)Man(a1-6)]Man(b1-4)GlcNAc(b1-4)[Fuc(a1-6)]GlcNAc
# Summary of the method: as §1
# [27] = biological target: GlcNAc(b1-3)Gal(b1-4)GlcNAc(b1-3)Gal(b1-4)GlcNAc(b1-2)[GlcNAc(b1-3)Gal(b1-4)GlcNAc(b1-3)Gal(b1-4)GlcNAc(b1-6)]Man(a1-6)[GlcNAc(b1-3)Gal(b1-4)GlcNAc(b1-3)Gal(b1-4)GlcNAc(b1-2)Man(a1-3)]Man(b1-4)GlcNAc(b1-4)[Fuc(a1-6)]GlcNAc
# Summary of the method: as §1
# [28] = biological target: GlcNAc(b1-3)Gal(b1-4)GlcNAc(b1-3)Gal(b1-4)GlcNAc(b1-3)Gal(b1-4)GlcNAc(b1-2)Man(a1-3)[GlcNAc(b1-3)Gal(b1-4)GlcNAc(b1-3)Gal(b1-4)GlcNAc(b1-3)Gal(b1-4)GlcNAc(b1-2)Man(a1-6)]Man(b1-4)GlcNAc(b1-4)GlcNAc
# Summary of the method: as §1
# [29] = biological target: GlcNAc(b1-3)Gal(b1-4)GlcNAc(b1-3)Gal(b1-4)GlcNAc(b1-3)Gal(b1-4)GlcNAc(b1-2)Man(a1-3)[GlcNAc(b1-3)Gal(b1-4)GlcNAc(b1-3)Gal(b1-4)GlcNAc(b1-3)Gal(b1-4)GlcNAc(b1-2)Man(a1-6)]Man(b1-4)GlcNAc(b1-4)[Fuc(a1-6)]GlcNAc
# Summary of the method: as §1
# [30] = biological target: GlcNAc(b1-3)Gal(b1-4)GlcNAc(b1-3)Gal(b1-4)GlcNAc(b1-3)Gal(b1-4)GlcNAc(b1-2)[GlcNAc(b1-3)Gal(b1-4)GlcNAc(b1-3)Gal(b1-4)GlcNAc(b1-3)Gal(b1-4)GlcNAc(b1-6)]Man(a1-6)[GlcNAc(b1-3)Gal(b1-4)GlcNAc(b1-3)Gal(b1-4)GlcNAc(b1-3)Gal(b1-4)GlcNAc(b1-2)Man(a1-3)]Man(b1-4)GlcNAc(b1-4)[Fuc(a1-6)]GlcNAc
# Summary of the method: as §1
# [31] = biological target: GlcNAc(b1-3)Gal(b1-4)GlcNAc(b1-3)Gal(b1-4)GlcNAc(b1-3)Gal(b1-4)GlcNAc(b1-3)Gal(b1-4)GlcNAc(b1-2)Man(a1-3)[GlcNAc(b1-3)Gal(b1-4)GlcNAc(b1-3)Gal(b1-4)GlcNAc(b1-3)Gal(b1-4)GlcNAc(b1-3)Gal(b1-4)GlcNAc(b1-2)Man(a1-6)]Man(b1-4)GlcNAc(b1-4)GlcNAc
# Summary of the method: as §1
# [32] = biological target: GlcNAc(b1-3)Gal(b1-4)GlcNAc(b1-3)Gal(b1-4)GlcNAc(b1-3)Gal(b1-4)GlcNAc(b1-3)Gal(b1-4)GlcNAc(b1-2)Man(a1-3)[GlcNAc(b1-3)Gal(b1-4)GlcNAc(b1-3)Gal(b1-4)GlcNAc(b1-3)Gal(b1-4)GlcNAc(b1-3)Gal(b1-4)GlcNAc(b1-2)Man(a1-6)]Man(b1-4)GlcNAc(b1-4)[Fuc(a1-6)]GlcNAc
# Summary of the method: as §1
# [33] = biological target: GlcNAc(b1-3)Gal(b1-4)GlcNAc(b1-3)Gal(b1-4)GlcNAc(b1-3)Gal(b1-4)GlcNAc(b1-3)Gal(b1-4)GlcNAc(b1-2)[GlcNAc(b1-3)Gal(b1-4)GlcNAc(b1-3)Gal(b1-4)GlcNAc(b1-3)Gal(b1-4)GlcNAc(b1-3)Gal(b1-4)GlcNAc(b1-6)]Man(a1-6)[GlcNAc(b1-3)Gal(b1-4)GlcNAc(b1-3)Gal(b1-4)GlcNAc(b1-3)Gal(b1-4)GlcNAc(b1-3)Gal(b1-4)GlcNAc(b1-2)Man(a1-3)]Man(b1-4)GlcNAc(b1-4)[Fuc(a1-6)]GlcNAc
# Summary of the method: as §1
# [34] = biological target: GlcNAc(b1-3)Gal(b1-4)GlcNAc(b1-3)Gal(b1-4)GlcNAc(b1-3)GalNAc
# Summary of the method: as §1
binder,measurement,setting,value
"LSECtin (Homo sapiens), Q6UXB4 (protein) MDTTRYSKWGGSSEEVPGGPWGRWVHWSRRPLFLALAVLVTTVLWAVILSILLSKASTERAALLDGHDLLRTNASKQTAALGALKEEVGDCHSCCSGTQAQLQTTRAELGEAQAKLMEQESALRELRERVTQGLAEAGRGREDVRTELFRALEAVRLQNNSCEPCPTSWLSFEGSCYFFSVPKTTWAAAQDHCADASAHLVIVGGLDEQGFLTRNTRGRGYWLGLRAVRHLGKVQGYQWVDGVSLSFSHWNQGEPNDAWGRENCVMMLHTGLWNDAPCDSEKDGWICEKRHNC",glycan array binding signal (z-score),[1],-0.172
same,glycan array binding signal (z-score),[2],-0.167
same,glycan array binding signal (z-score),[3],-0.182
same,glycan array binding signal (z-score),[4],-0.051
same,glycan array binding signal (z-score),[5],0.866
same,glycan array binding signal (z-score),[6],0.337
same,glycan array binding signal (z-score),[7],-0.159
same,glycan array binding signal (z-score),[8],6.75
same,glycan array binding signal (z-score),[9],1.91
same,glycan array binding signal (z-score),[10],6.57
same,glycan array binding signal (z-score),[11],6.3
same,glycan array binding signal (z-score),[12],3.06
same,glycan array binding signal (z-score),[13],0.062
same,glycan array binding signal (z-score),[14],-0.117
same,glycan array binding signal (z-score),[15],-0.132
same,glycan array binding signal (z-score),[16],7.17
same,glycan array binding signal (z-score),[17],9.94
same,glycan array binding signal (z-score),[18],2.46
same,glycan array binding signal (z-score),GlcNAc(b1-3)Fuc,-0.125
same,glycan array binding signal (z-score),GlcNAc(b1-3)Gal,-0.23
same,glycan array binding signal (z-score),[19],-0.115
same,glycan array binding signal (z-score),GlcNAc(b1-3)Gal(b1-4)Glc,-0.109
same,glycan array binding signal (z-score),[20],-0.162
same,glycan array binding signal (z-score),[21],-0.124
same,glycan array binding signal (z-score),[22],-0.126
same,glycan array binding signal (z-score),[23],-0.136
same,glycan array binding signal (z-score),[24],-0.225
same,glycan array binding signal (z-score),[25],-0.119
same,glycan array binding signal (z-score),[26],-0.134
same,glycan array binding signal (z-score),[27],-0.135
same,glycan array binding signal (z-score),[28],-0.126
same,glycan array binding signal (z-score),[29],-0.132
same,glycan array binding signal (z-score),[30],-0.136
same,glycan array binding signal (z-score),[31],-0.132
same,glycan array binding signal (z-score),[32],-0.139
same,glycan array binding signal (z-score),[33],-0.127
same,glycan array binding signal (z-score),[34],-0.131
